Data set [1] deals with H4. The data set can be described thus: cell viability relative to siNT1 (ATP content); H4 human neuroglioma and GL261 mouse glioma; higher = less toxic. The conditions noted are these: siRNA concentration 10 nM; 96 h; human.
Data set [2] has as its system GL261. The description is as above. The conditions noted are these: siRNA concentration 25 nM; 96 h; mouse.

The sequences are guide strands of siRNAs; only the seed at positions 2 to 7 varies.

The values below come from the supplement of paper PMC8948288.
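Further: cells reverse transfected with siRNA duplexes via lipid reagent, ATP read by luminescence, triplicate wells, values scaled to mean viability with non-targeting control siNT1.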

As a reminder, the cell viability is a read-out of living cells in per cent, often relative to untreated cells. Turning to UCUAAAUACAUGUAAACCA, the cell viability in data set [1] came to 84.5%; in data set [2], 100%.
In the same order, the values of UCUAACAACAUGUAAACCA are 74% and 55.3%.
Taken in the same sequence, the figures for UCUAACCACAUGUAAACCA were 85.2% and 39.8%.
Taken in the same sequence, the figures for UCUAACGACAUGUAAACCA were 80% and 68.1%.
UCUAACUACAUGUAAACCA: the cell viability in data set [1] turned out to be 68.7%; in data set [2] it was 61%.
In the same order, the values of UCUAAGAACAUGUAAACCA are 83.1% and 52.6%.
In the same order, the values of UCUAAGCACAUGUAAACCA are 79.1% and 59.8%.
On to UCUAAGGACAUGUAAACCA, for which the cell viability worked out at 84% in data set [1] and 53% in data set [2].
UCUAAGUACAUGUAAACCA: the cell viability came to 115% in data set [1] and 45.5% in data set [2].
In the same order, the values of UCUAAUAACAUGUAAACCA are 98.5% and 59.3%.
Taken in the same sequence, the figures for UCUAAUCACAUGUAAACCA were 97.7% and 60.3%.
With UCUAAUGACAUGUAAACCA, the cell viability in data set [1] amounted to 87.2%; in data set [2] it was 61.2%.
Turning to UCUAAUUACAUGUAAACCA, the cell viability in data set [1] amounted to 71.6%; in data set [2], 61.6%.
Taken in the same sequence, the figures for UCUACAAACAUGUAAACCA were 98% and 59.3%.
Consider UCUACACACAUGUAAACCA, for which the figures for the cell viability in data set [1] and in data set [2] were 87.3% and 69.1%, respectively.
In the same order, the values of UCUACAGACAUGUAAACCA are 91.8% and 71.8%.
Taken in the same sequence, the figures for UCUACAUACAUGUAAACCA were 122% and 53.9%.
Consider UCUACCAACAUGUAAACCA, for which the cell viability in data set [1] was 82.9%; in data set [2] it was 54.8%.
In the same order, the values of UCUACCCACAUGUAAACCA are 67.7% and 43.5%.
Taken in the same sequence, the figures for UCUACCGACAUGUAAACCA were 104% and 70.6%.
In the same order, the values of UCUACCUACAUGUAAACCA are 83.9% and 46.6%.
In the case of UCUACGAACAUGUAAACCA, the cell viability was determined as 92% in data set [1] and 65.4% in data set [2].
In the same order, the values of UCUACGCACAUGUAAACCA are 79% and 30.1%.
Taken in the same sequence, the figures for UCUACGGACAUGUAAACCA were 69.9% and 51.8%.
Taken in the same sequence, the figures for UCUACGUACAUGUAAACCA were 83.9% and 52.1%.
On to UCUACUAACAUGUAAACCA, for which the cell viability in data set [1] was determined as 98%; in data set [2], 80.3%.
As for UCUACUCACAUGUAAACCA, the cell viability in data set [1] amounted to 91.2%; in data set [2] it was 35.1%.
In the same order, the values of UCUACUGACAUGUAAACCA are 92.2% and 60.9%.
Taken in the same sequence, the figures for UCUACUUACAUGUAAACCA were 108% and 65.9%.
Taken in the same sequence, the figures for UCUAGAAACAUGUAAACCA were 78.1% and 70.3%.
Regarding UCUAGACACAUGUAAACCA, the cell viability in data set [1] came to 79.5%; in data set [2], 60.9%.
Taken in the same sequence, the figures for UCUAGAGACAUGUAAACCA were 115% and 46.3%.
Turning to UCUAGAUACAUGUAAACCA, the figures for the cell viability in data set [1] and in data set [2] were 75.3% and 59.7%, respectively.
Take UCUAGCAACAUGUAAACCA: the cell viability is 100% in data set [1] and 52.2% in data set [2].
In the same order, the values of UCUAGCCACAUGUAAACCA are 29% and 46.1%.
Taken in the same sequence, the figures for UCUAGCGACAUGUAAACCA were 79.7% and 63.9%.
As to UCUAGCUACAUGUAAACCA, the cell viability in data set [1] was 56.3%; in data set [2], 50.2%.
In the same order, the values of UCUAGGAACAUGUAAACCA are 87.3% and 81.2%.
Turning to UCUAGGCACAUGUAAACCA, the cell viability was found to be 45.9% in data set [1] and 28.3% in data set [2].
Taken in the same sequence, the figures for UCUAGGGACAUGUAAACCA were 83.7% and 45.8%.
Taken in the same sequence, the figures for UCUAGGUACAUGUAAACCA were 79.6% and 60.4%.
Consider UCUAGUAACAUGUAAACCA, for which the cell viability in data set [1] was 79.1%; in data set [2], 61.7%.
In the same order, the values of UCUAGUCACAUGUAAACCA are 78.3% and 46.3%.
Taken in the same sequence, the figures for UCUAGUGACAUGUAAACCA were 79.5% and 77.6%.
In the same order, the values of UCUAGUUACAUGUAAACCA are 68.9% and 56%.
Turning to UCUAUAAACAUGUAAACCA, the cell viability in data set [1] stood at 105%; in data set [2] it was 51.1%.
In the same order, the values of UCUAUACACAUGUAAACCA are 89.6% and 51.4%.
In the same order, the values of UCUAUAGACAUGUAAACCA are 94.5% and 61.1%.
In the same order, the values of UCUAUAUACAUGUAAACCA are 78% and 59.6%.
For UCUAUCAACAUGUAAACCA, the figures for the cell viability in data set [1] and in data set [2] were 114% and 52.7%, respectively.
As to UCUAUCCACAUGUAAACCA, the cell viability in data set [1] stood at 84.3%; in data set [2] it was 46.4%.
As to UCUAUCGACAUGUAAACCA, the results for the cell viability in data set [1] and in data set [2] were 74.4% and 60.4%, respectively.
In the same order, the values of UCUAUCUACAUGUAAACCA are 81.8% and 44%.
In the same order, the values of UCUAUGAACAUGUAAACCA are 76.1% and 49.8%.
Taken in the same sequence, the figures for UCUAUGCACAUGUAAACCA were 45.7% and 14%.
UCUAUGGACAUGUAAACCA: the results for the cell viability in data set [1] and in data set [2] were 106% and 33.2%, respectively.
Taken in the same sequence, the figures for UCUAUGUACAUGUAAACCA were 72.3% and 32.6%.
Take UCUAUUAACAUGUAAACCA: the figures for the cell viability in data set [1] and in data set [2] were 97.3% and 63.3%, respectively.
In the same order, the values of UCUAUUCACAUGUAAACCA are 107% and 32.8%.
Taken in the same sequence, the figures for UCUAUUGACAUGUAAACCA were 91.5% and 50.1%.
In the same order, the values of UCUAUUUACAUGUAAACCA are 77.2% and 60.8%.
In the case of UCUCAAAACAUGUAAACCA, the results for the cell viability in data set [1] and in data set [2] were 91.4% and 30.8%, respectively.
Taken in the same sequence, the figures for UCUCAACACAUGUAAACCA were 108% and 34.4%.
Taken in the same sequence, the figures for UCUCAAGACAUGUAAACCA were 80% and 42.3%.
In the same order, the values of UCUCAAUACAUGUAAACCA are 120% and 38.2%.
